The values below come from the supplement of paper PMC4723716.

± gives the uncertainty stated by the source. Whole data set: some 9,900 compounds, median “viability index relative to DMSO control” near 1, cut for the lowest 2% near 0.85. This is one part of the list.

The assay relates to Plasmodium falciparum NF54 stage V gametocytes. The assay can be described thus: viability index relative to DMSO control (fraction); higher = less gametocyte killing. The settings on record: 2.5 µM, library set: Broad Institute DOS, incubation time: 72 h. A digest of the protocol: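 P. falciparum NF54 stage V gametocytes in serum-free screening medium (0.75% gametocytemia, 1.25% hematocrit, 10 µl) were incubated with compound at 2.5 µM in 1,536-well plates for 72 hr at 37°C under low oxygen. Then 3 µl of 2.5 µM MitoTracker Red CMXRos plus 0.13% saponin was added for one to two hours. One field per well was imaged, 20–70 µm2 red particles were counted, and the viability index was the count divided by the plate mean of DMSO wells.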
Take `O=C(CCN1CCCCC1)NCC[C@@H]1CC[C@H](NS(=O)(=O)c2cccc(Cl)c2)[C@@H](CO)O1`: the viability index was found to be 0.972 ± 0.075.
The value for `C[C@@H](NC(=O)C[C@@H]1C=C[C@H](NC(=O)c2cccnc2)[C@@H](CO)O1)c1ccccc1` was 1.09 ± 0.053; that for `Cc1cccc(S(=O)(=O)N[C@@H]2CC[C@H](CCNC(=O)Nc3cc(F)ccc3F)O[C@H]2CO)c1` was 1.06 ± 0.15.
The value for `O=S(=O)(c1cccc(F)c1)N1CC[C@@H]2[C@H](CO)Nc3ccc(C#Cc4ccccc4F)cc3[C@@H]21` was 1.017 ± 0.0066.
The value for `CN1CCN(C(=O)C[C@H]2CC[C@@H]3[C@H](COC[C@@H](O)CN3Cc3cccc(-c4ccncc4)c3)O2)CC1` was 1.07 ± 0.024; that for `C[C@@H]1CN([C@@H](C)CO)C(=O)c2cc(NS(=O)(=O)c3ccc(Cl)cc3)ccc2O[C@@H](C)CCCCO[C@H]1CN(C)C(=O)CCCN(C)C` was 1.03 ± 0.02; that for `Cc1noc(C)c1NC(=O)N(C)C[C@H]1OCc2cn(nn2)CCCC(=O)N([C@H](C)CO)C[C@@H]1C` was 1.07 ± 0.041.
Molecule `COc1ccc2c3c([C@H](CO)N(C[C@]33CN(C3)C(=O)Cc3ccccc3)C(=O)c3ccccn3)n(C)c2c1` displayed a viability index of 1.03 ± 0.053.
The value for `COc1ccc2c3c([nH]c2c1)[C@H](CO)N(C[C@]31CCN(Cc2cccc(F)c2)CC1)C(=O)C1CCOCC1` was 1.043 ± 0.0076; that for `COc1ccccc1CNC(=O)C[C@@H]1C=C[C@@H](NC(=O)CC2CC2)[C@H](CO)O1` was 1.05 ± 0.034.
As for `O=C([C@@H]1[C@@H](CO)[C@@H]2Cn3c(cccc3=O)[C@@H]2N1Cc1cocn1)N1CCC(Cc2ccccc2)CC1`, the viability index amounted to 1.07 ± 0.055.
The value for `O=C(c1ccccc1F)N1CC(=O)N2[C@H](CO)[C@H](c3ccc(C#Cc4ccccc4)cc3)[C@H]2C1` was 1.06 ± 0.17; that for `COc1ccc(S(=O)(=O)Nc2ccc3c(c2)CC(=O)N([C@@H](C)CO)C[C@@H](C)[C@H](CN(C)C(=O)Nc2c(C)noc2C)O3)cc1` was 0.986 ± 0.019.
In the case of `C[C@H](CO)N1C[C@H](C)[C@@H](CN(C)S(C)(=O)=O)Oc2c(NC(=O)Nc3ccc4c(c3)OCO4)cccc2C1=O`, the viability index is 0.988 ± 0.074.
The value for `O=C1CN(S(=O)(=O)Cc2ccccc2)C[C@H]2[C@@H](c3ccc(C#Cc4ccccc4)cc3)[C@@H](CO)N12` was 1.08 ± 0.02; that for `CCCC#Cc1ccc([C@H]2[C@@H](CO)N3C(=O)CN(C(=O)c4cccnc4)C[C@H]23)cc1` was 1.06 ± 0.058.
For the molecule `C[C@@H]1CN([C@H](C)CO)C(=O)c2cc(/C=C/c3ccccc3)cnc2O[C@@H]1CN(C)S(=O)(=O)c1ccccc1F`, the viability index is 1.08 ± 0.021.
The value for `CO[C@@H]1CC[C@@H]2CCN(C)C(=O)CC3(CCCCC3)CN(C)C(=O)c3cccc(C#N)c3OC[C@@H]1O2` was 1.066 ± 0.009; that for `O=C(Cc1ccncc1)N1C[C@@H]2N[C@H](C1)[C@@H]2c1ccc(/C=C/c2ccccc2)cc1` was 0.9847 ± 0.0017; that for `COCC(=O)N1[C@H](CO)[C@H]2c3ccccc3N(C(=O)c3cccnc3)C[C@H]21` was 1.09 ± 0.057.
As to `C[C@H](CO)N1C[C@H](C)[C@@H](CN(C)Cc2ccc(C(=O)O)cc2)OCCCC[C@H](C)Oc2ccc(N(C)C)cc2C1=O`, the viability index was 1.09 ± 0.13.
The value for `COCC(=O)Nc1ccc2c(c1)[C@@H]1C[C@@H](CC(=O)NCc3ccc4c(c3)OCO4)O[C@H](CO)[C@@H]1O2` was 1.16 ± 0.052; that for `C[C@@H]1CN([C@H](C)CO)S(=O)(=O)c2ccc(C#CCC3CCCC3)cc2O[C@H]1CN(C)C(=O)c1cnccn1` was 1 ± 0.06; that for `C[C@H](CO)N1C[C@H](C)[C@@H](CN(C)C(=O)Nc2ccc3c(c2)OCO3)Oc2ccc(NC(=O)Cn3cnnn3)cc2C1=O` was 1.06 ± 0.021.
The value for `Cc1noc(C)c1NC(=O)N1C[C@@H](O)COC[C@H]2O[C@H](CC(=O)NCC3CC3)CC[C@@H]21` was 1.1 ± 0.048; that for `COC(=O)C[C@@H]1CC[C@H]2[C@@H](COc3ccc(NC(=O)Nc4cccc(C#N)c4)cc3C(=O)N2C)O1` was 1.14 ± 0.037; that for `COc1ccc(C#Cc2ccc([C@@H]3[C@@H](CO)N4CCCCN(C)C[C@@H]34)cc2)cc1` was 0.945 ± 0.077.
The value for `C[C@H](CO)N1C[C@H](C)[C@H](CN(C)C(=O)CCC(F)(F)F)OCc2cn(nn2)CCCC1=O` was 1.04 ± 0.062; that for `CS(=O)(=O)Nc1ccc2c(c1)[C@@H]1C[C@@H](CC(=O)NCCc3ccccc3)O[C@@H](CO)[C@@H]1O2` was 1.14 ± 0.061; that for `C/C=C/c1ccc([C@H]2[C@@H](CO)N3C(=O)CN(C(=O)Nc4cccc(OC)c4)C[C@@H]23)cc1` was 1.05 ± 0.071.
In turn, `COc1ccc(C#Cc2ccc([C@H]3[C@@H](CO)N4CCCCN(C)C[C@H]34)cc2)cc1` gave a viability index of 0.917 ± 0.074.
The value for `O=C(C[C@@H]1CC[C@H]2NC[C@H](O)COC[C@@H]2O1)N1CCc2ccccc2C1` was 0.9465 ± 0.005.
The value for `O=C(Nc1ccc(F)cc1)N1CC(=O)N2[C@H](CO)[C@@H](c3ccc(C#Cc4cccnc4)cc3)[C@H]2C1` was 0.993 ± 0.082.
Molecule `C[C@@H]1CN([C@@H](C)CO)S(=O)(=O)c2ccc(C#CC3(O)CCCC3)cc2O[C@@H]1CN(C)C(=O)Nc1cccc(F)c1` had a viability index of 0.955 ± 0.018.
The value for `Cc1ccc(S(=O)(=O)N(C)C[C@H]2OCCCC[C@@H](C)Oc3ccc(NC(=O)c4ccncc4)cc3C(=O)N([C@@H](C)CO)C[C@H]2C)cc1` was 0.903 ± 0.055; that for `O=C(N[C@H]1C=C[C@@H](CC(=O)N2CCC(Cc3ccccc3)CC2)O[C@@H]1CO)c1cnccn1` was 1.042 ± 0.0049; that for `Cc1noc(C)c1S(=O)(=O)N(C)C[C@H]1Oc2c(NS(=O)(=O)c3cn(C)cn3)cccc2C(=O)N([C@H](C)CO)C[C@@H]1C` was 1.05 ± 0.083.
The value for `COc1ccc(CN2[C@@H](CO)[C@@H]3c4ccccc4NC[C@@H]32)cc1` was 1.05 ± 0.071; that for `O=C(O)C[C@@H]1C=C[C@@H](NC(=O)Nc2cc(F)ccc2F)[C@H](CO)O1` was 0.96 ± 0.091.
The value for `CCCC(=O)N1C[C@@]2(C1)CN(Cc1cccnc1)[C@H](CO)c1[nH]c3cc(OC)ccc3c21` was 1.06 ± 0.064; that for `C[C@H]1CN([C@@H](C)CO)C(=O)c2cc(NS(=O)(=O)c3cn(C)cn3)ccc2O[C@H]1CN(C)C(=O)Nc1cccc2ccccc12` was 0.974 ± 0.062.
In the case of `OC[C@H]1[C@@H](c2ccc(-c3cccnc3)cc2)[C@@H]2CN(Cc3ccccn3)CCCCN12`, the viability index was determined as 0.98 ± 0.036.
The value for `CC(C)(O)C#Cc1cccc(-c2nc(C(=O)O)cc3c2[C@H](CCO)N(S(=O)C(C)(C)C)C3)c1` (some centres undefined) was 0.953 ± 0.049; that for `COc1cccc(C(=O)N2C[C@H]3[C@@H](c4ccccc42)[C@@H](CO)N3C(=O)c2cccc(F)c2)c1` was 1.02 ± 0.075.
